Our source for the cytotoxicity call and growth inhibition call values is the antibiotic and cytotoxicity screens of Wong et al. (2023).

The subject of one assay is HSkMC. Put plainly: cytotoxicity call (relative viability < 0.9). The settings on record: 10 µM.
The next assay deals with HepG2. Kind of assay: cytotoxicity call (relative viability < 0.9). Conditions: 10 µM.
The next assay concerns S. aureus RN4220. Put plainly: growth inhibition call (relative growth <= 0.2). The settings on record: 50 µM.

The list shows a part of the results.

Regarding `COc1ccc(S(=O)(=O)Nc2ccc3c(c2)C(=O)N([C@H](C)CO)C[C@H](C)[C@H](CN(C)Cc2ccc(C(F)(F)F)cc2)OCCCC[C@H](C)O3)cc1`, the cytotoxicity call in the assay with HSkMC is “active”. For the same compound, the cytotoxicity call in the assay on HepG2 was “inactive”. Besides, the growth inhibition call with S. aureus RN4220 is “inactive”.

Consider `C[C@@H]1CCCCO[C@@H](CN(C)C(=O)Nc2ccc(C(F)(F)F)cc2)[C@H](C)CN([C@@H](C)CO)C(=O)c2cc(NC(=O)c3ccncc3)ccc2O1`, for which the cytotoxicity call in the assay on HSkMC and with HepG2 was “inactive” throughout. Moreover, the growth inhibition call in the assay on S. aureus RN4220 is “inactive”.

In the case of `COc1ccccc1CN1C(=O)c2ccccc2[C@@]2(Cc3ccccc3N(CC(C)C)C2=O)[C@@H]1c1ccc(CO)cc1`, the cytotoxicity call in the assay with HSkMC and in the assay with HepG2 was “inactive” throughout. The growth inhibition call with S. aureus RN4220 was “inactive”.

`C[C@@H]1CCCCO[C@H](CN(C)C(=O)CCC(F)(F)F)[C@H](C)CN([C@@H](C)CO)C(=O)c2cc(NC(=O)CCCCCC(=O)Nc3ccccc3N)ccc2O1`: the cytotoxicity call with HSkMC and in the assay with HepG2 was “inactive” in each case. In addition, the growth inhibition call in the assay with S. aureus RN4220 was “inactive”.

As to `C[C@@H]1CN([C@@H](C)CO)C(=O)c2cccc(NC(=O)c3ccncc3)c2O[C@H]1CN(C)Cc1ccc2c(c1)OCO2`, the cytotoxicity call in the assay on HSkMC and with HepG2 was “inactive” each time. Further, in the assay with S. aureus RN4220, the growth inhibition call is “inactive”.

On to `O=C(O)c1cc(O)c2c(c1)C(C1c3cc(C(=O)O)cc(O)c3C(=O)c3c(OC4OC(CO)C(O)C(O)C4O)cccc31)c1cccc(OC3OC(CO)C(O)C(O)C3O)c1C2=O` (stereo not given), for which the cytotoxicity call in the assay with HSkMC was “inactive”. For the same compound, in the assay on HepG2, the cytotoxicity call was “active”. In addition, the growth inhibition call in the assay on S. aureus RN4220 is “inactive”.

Take `Cc1noc(C)c1S(=O)(=O)N(C)C[C@H]1Oc2ccc(NC(=O)NC3CCCCC3)cc2CC(=O)N([C@@H](C)CO)C[C@H]1C`: the cytotoxicity call in the assay on HSkMC and with HepG2 was “inactive” in each case. Also, the growth inhibition call in the assay on S. aureus RN4220 was “inactive”.

For the compound `COc1ccncc1N`, the cytotoxicity call in the assay on HSkMC and with HepG2 was “inactive” throughout. In the assay on S. aureus RN4220, the growth inhibition call is “inactive”.

With `Nc1ncccc1O`, the cytotoxicity call with HSkMC and in the assay with HepG2 was “inactive” each time. In addition, in the assay with S. aureus RN4220, the growth inhibition call was “inactive”.

`CC(C)CC#Cc1cnc2c(c1)C(=O)N([C@H](C)CO)C[C@@H](C)[C@H](CN(C)C(=O)CN1CCOCC1)O2`: the cytotoxicity call in the assay on HSkMC (human skeletal muscle cells) and with HepG2 was “inactive” throughout. For the same compound, in the assay with S. aureus RN4220, the growth inhibition call is “inactive”.
